In all, about 270,000 compounds went through this assay and about 620 (0.23%) were called active. The shares of active, inactive and inconclusive entries below differ from those in the screen. Calls follow the shape of the dose curve; as a rule, active = well fitted inhibition curve with a large enough effect in the polarisation, with a control signal flat (not every such curve was filed as active); inconclusive = small, poorly fitted or top-dose-only effect, or effect the other way, or a change in a side signal; inactive = no such curve, though single readings can be large or run the other way; the % refers to the polarisation. Potencies of inconclusive entries are doubtful fits and often do not repeat. “Side channel” marks fits to a control or component signal instead of the main read-out.
These compounds were tested against Menin (Homo sapiens) (UniProt O00255) (assay: qHTS Assay for Inhibitors Targeting the Menin-MLL Interaction in MLL Related Leukemias: Competition With Texas Red Labeled MLL-derived Mutant Peptide). Settings: fluorescence polarization; series mostly up to 61.6 µM.
Sequence of UniProt O00255 (O00255 whole entry, looked up): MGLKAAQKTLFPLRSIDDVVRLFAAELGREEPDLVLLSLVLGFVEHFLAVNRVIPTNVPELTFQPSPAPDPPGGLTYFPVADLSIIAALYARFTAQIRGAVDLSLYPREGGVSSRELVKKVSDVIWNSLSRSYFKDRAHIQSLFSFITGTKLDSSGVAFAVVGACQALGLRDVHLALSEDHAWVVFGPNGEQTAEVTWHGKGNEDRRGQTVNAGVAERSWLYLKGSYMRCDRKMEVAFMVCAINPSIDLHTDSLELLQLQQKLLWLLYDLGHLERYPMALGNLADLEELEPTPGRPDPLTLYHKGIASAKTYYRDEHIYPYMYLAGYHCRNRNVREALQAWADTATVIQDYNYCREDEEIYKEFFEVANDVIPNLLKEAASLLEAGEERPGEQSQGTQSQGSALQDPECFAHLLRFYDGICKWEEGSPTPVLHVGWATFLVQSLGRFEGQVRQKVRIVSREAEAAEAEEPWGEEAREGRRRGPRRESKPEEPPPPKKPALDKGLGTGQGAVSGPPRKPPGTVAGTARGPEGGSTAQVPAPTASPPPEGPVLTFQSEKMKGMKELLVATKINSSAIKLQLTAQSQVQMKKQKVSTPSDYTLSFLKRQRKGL
Potency is read from the fitted curve at half-maximal effect; tags tell the direction and shape of the fitted curve or compound fluorescence and quenching.

SMILES	Potency
O=C(NCc1ccco1)c1ccc(NS(=O)(=O)c2cccc(F)c2)cc1	inconclusive: 0.891 µM [quencher, side channel, full curve, poor fit]
COc1ccc(NC(=O)[C@H](COCc2ccccc2)NC(=O)OC(C)(C)C)cc1	inconclusive: 25.1 µM [fluorescent, side channel, single point]
CC(c1ccccc1)n1cnc2ccccc21 (stereo not drawn)	inconclusive: 39.8 µM [inhibitor, single point]
COc1ccccc1NS(=O)(=O)c1cc([N+](=O)[O-])ccc1N/N=C/c1sc(N2CCOCC2)nc1-c1ccccc1	inconclusive: 14.1 µM [quencher, side channel, partial curve]
O=C(Nc1nc(-c2cc3ccccc3oc2=O)cs1)c1ccco1	inconclusive: 25.1 µM [quencher, side channel, partial curve]
COc1ccc(C(=O)Nc2ccc(S(=O)(=O)NCc3ccco3)cc2)cc1OC	inconclusive: 39.8 µM [inhibitor, single point]
CSc1ncc2c(=O)[nH]c(-c3ccccc3)nc2n1	inconclusive: 11.2 µM [inhibitor, partial curve]
CCCCOC(=O)Cn1c(=O)n(CC(=O)OCCCC)c2cc(C)ccc21	inconclusive: 7.94 µM [fluorescent, side channel, full curve]
S=C(NCc1ccccn1)Nc1ccc(Cl)c(Cl)c1	inconclusive: 12.6 µM [quencher, side channel, partial curve]
Cc1nc(Nc2ccc3c(c2)OCCO3)c2oc3ccccc3c2n1	inconclusive: 28.2 µM [quencher, side channel, partial curve]
CCn1c2ccccc2c2cc(NC(=O)C(=O)N3CCOCC3)ccc21	inconclusive: 39.8 µM [quencher, side channel, single point]
CCCCc1c(O)c2ccccc2n(CCCC)c1=O	inactive
COC(=O)c1cc(Cl)c(NC(=O)/C=C/c2ccc(Cl)cc2)cc1OC	inactive
O=C(O)c1ccc(Sc2nnc(-c3cccc(Br)c3)o2)c([N+](=O)[O-])c1	inconclusive: 28.2 µM [quencher, side channel, single point]
COc1cccc(N2CCN(C(=O)C3CCC(=O)N(C4CCCCCC4)C3)CC2)c1 (stereo not drawn)	inconclusive: 39.8 µM [inhibitor, single point]
c1ccc(Nc2nc(-c3ccccc3)nc3ccccc23)cc1	inconclusive: 11.2 µM [quencher, side channel, partial curve]
COc1cccc(NC(=O)Nc2cccc(C)n2)c1	inconclusive: 39.8 µM [inhibitor, single point]
C=CCSc1nc2sc3c(c2c(=O)n1-c1ccccc1)CCN(C)C3	inconclusive: 17.8 µM [fluorescent, side channel, partial curve]
Cc1ccc(C)c(C(C)NC(=O)c2ccc(Br)o2)c1 (stereo not drawn)	inconclusive: 22.4 µM [fluorescent, side channel, partial curve]
CCCC(=O)N1CCN(c2nnc(-c3ccc(C)cc3)c3ccccc23)CC1	inconclusive: 10 µM [fluorescent, side channel, partial curve]

SMILES	Potency
Cc1nc2ccc(NC(=O)c3ccc([N+](=O)[O-])cc3[N+](=O)[O-])cc2s1	inconclusive: 22.4 µM [quencher, side channel, single point]
CCOC(=O)c1c(C)n(-c2ccc(C)cc2)c2ccc(O)c(CN(C)C)c12	inconclusive: 2.82 µM [fluorescent, side channel, full curve]
CS(=O)(=O)c1ccc2nc(NC(=O)c3cccc(NS(=O)(=O)c4ccc(F)c(F)c4)c3)sc2c1	inconclusive: 14.1 µM [quencher, side channel, partial curve]
CCn1c(SCc2nc(-c3ccccc3)no2)nnc1-c1ccco1	inconclusive: 28.2 µM [fluorescent, side channel, single point]
O=C(Cc1ccc(S(=O)(=O)N2CCOCC2)s1)Nc1nc2c(s1)CCCC2	inconclusive: 6.31 µM [quencher, side channel, single point]
COC(=O)CCCCCN1C(=O)NC(c2ccccc2)C(C(=O)OCc2ccccc2)=C1C (stereo not drawn)	inconclusive: 10 µM [fluorescent, side channel, partial curve]
COc1ccc(/C=C2\SC(N3CCCCC3)=NC2=O)cc1	inconclusive: 25.1 µM [inhibitor, partial curve]
O[C@@H]1CO[C@H]2C1OC[C@@H]2O (stereo partly drawn)	inactive
O=C(NCCN1CCN(c2ccccc2F)CC1)c1cccn2c(=O)c3ccccc3nc12	inconclusive: 3.16 µM [fluorescent, side channel, single point]
CC(=O)NC(c1ccc(C)cc1)c1cc(Cl)c2cccnc2c1O (stereo not drawn)	inactive
Cc1cc(NC(=O)c2ccc3[nH]c(C)c(C)c3c2)ccn1	inconclusive: 22.4 µM [quencher, side channel, partial curve]
CCOC(=O)C1=C(C)N=C2c3ccccc3C(=O)C2C1c1ccccc1 (stereo not drawn)	inconclusive: 25.1 µM [quencher, side channel, partial curve]
O=c1c2oc3ccccc3c2ncn1Cc1ccc(Cl)cc1	inconclusive: 39.8 µM [fluorescent, side channel, single point]
Cc1ccc(/C=C/C(=O)Nc2cc(C)on2)cc1	inconclusive: 39.8 µM [inhibitor, single point]
O=C(N/N=C/c1cccc(OCc2ccccc2)c1)c1cccs1	inconclusive: 14.1 µM [quencher, side channel, partial curve]
O=C(CSc1nc2ccccc2s1)c1ccc(O)cc1O	inconclusive: 39.8 µM [inhibitor, single point]
CC(C)Oc1ccccc1/C=N/Nc1ccccc1[N+](=O)[O-]	inconclusive: 12.6 µM [quencher, side channel, partial curve]
Cc1ccc(CCNC(=O)C2CCCN(c3nc4ccccc4o3)C2)cc1 (stereo not drawn)	inconclusive: 28.2 µM [fluorescent, side channel, single point]
Nc1nc(-c2cccc(NS(=O)(=O)c3ccccc3)c2)cs1	inconclusive: 28.2 µM [quencher, single point]
CN(C(=S)Nc1ccc(Oc2ccccc2)cc1)c1ccc(O)cc1	inconclusive: 25.1 µM [quencher, side channel, partial curve]

SMILES	Potency
COc1ccc2nc(Nc3ccc4c(c3)OCO4)sc2c1	inconclusive: 12.6 µM [quencher, side channel, partial curve]
COc1cc2c(cc1NC(=O)CSc1nc3ccc(C)cc3[nH]1)oc1ccccc12	inconclusive: 39.8 µM [inhibitor, single point]
CC1(C)C(=O)OC(c2c(F)c(F)c(F)c(F)c2F)C2(CCCCC2)C1=O (stereo not drawn)	inconclusive: 39.8 µM [fluorescent, side channel, single point]
Cc1c(C#N)c(N)c(C(=O)c2ccccc2)n1Cc1ccccc1	inconclusive: 28.2 µM [inhibitor, single point]
O=C(N/N=C\C=C\c1ccco1)c1cc(-c2ccc3ccccc3c2)n[nH]1	inconclusive: 7.94 µM [quencher, full curve]
COc1cccc(/C=N/n2c(C3CCCCC3)n[nH]c2=S)c1O	inactive
COc1ccc(NC(=O)c2cc(-c3ccc(C)cc3)on2)cc1OC	inactive
COc1cc(Cl)cc(CN2CCC(CCC(=O)NC3CC3)CC2)c1OC	inactive
O=S(=O)(N/N=C/c1ccc(Cl)cc1)c1ccc(Cc2ncc(C(F)(F)F)cc2Cl)s1	inconclusive: 35.5 µM [quencher, side channel, single point]
CCOc1cc(/C=N/NC(=O)c2cccs2)cc([N+](=O)[O-])c1O	inconclusive: 14.1 µM [quencher, side channel, partial curve]
COc1ccc(NC(=O)CN2CCN(C3c4ccccc4-c4ccccc43)CC2)c(OC)c1	inconclusive: 5.62 µM [fluorescent, side channel, full curve, poor fit]
O=C(Cc1cccc2ccccc12)NNC(=O)Nc1cccc(Cl)c1	inconclusive: 0.708 µM [inhibitor, full curve, poor fit]
O=C1N/C(=C/c2ccc(Br)s2)C(=O)N1c1ccccc1	inconclusive: 8.91 µM [inhibitor, full curve]
CN(Cc1cccnc1)Cc1c(C(=O)N2CCc3ccccc3C2)nc2ccc(Cl)cn12	inconclusive: 11.2 µM [fluorescent, side channel, partial curve]
CCN(CC)CCN(C(=O)c1ccc2ccccc2c1)c1nc2cc3c(cc2s1)OCO3	inconclusive: 2.82 µM [fluorescent, side channel, full curve]
CCOC(=O)c1c(NC(=O)c2cc(C)oc2C)sc(C(=O)Nc2ccc(Cl)cc2)c1C	inconclusive: 20 µM [inhibitor, partial curve, poor fit]
O=C(O)c1c[nH]c2cc(C(F)(F)F)ccc2c1=O	inconclusive: 39.8 µM [inhibitor, single point]
O=C(CNC(=O)C1COc2ccccc2O1)N/N=C/c1cc(Br)c(O)c(Br)c1 (stereo not drawn)	inconclusive: 25.1 µM [quencher, partial curve]

— PubChem BioAssay AID1768 (National Center for Advancing Translational Sciences (NCATS), 2009)
